{
  "source": "PubChem BioAssay AID720708",
  "about": "(National Center for Advancing Translational Sciences (NCATS), 2013)",
  "note": "Screen size: about 360,000 compounds; about 660 (0.18%) were called active. Inconclusive results, whose numbers are uncertain, are shown with a selection of clear calls. The call rests on the fitted dose curve; in most records, active means well fitted inhibition curve with a large enough effect; inconclusive means small, poorly fitted or top-dose-only effect; inactive means no such curve, though single readings can be large or run the other way. Potencies of inconclusive entries are left out as doubtful fits. Potency means the concentration at half of the fitted maximal effect; tags describe the fitted curve by direction and shape.",
  "data": [
    {"biological_target": "Rap guanine nucleotide exchange factor 4 (Homo sapiens) (UniProt Q8WZA2)", "sequence (Q8WZA2 whole entry, looked up)": "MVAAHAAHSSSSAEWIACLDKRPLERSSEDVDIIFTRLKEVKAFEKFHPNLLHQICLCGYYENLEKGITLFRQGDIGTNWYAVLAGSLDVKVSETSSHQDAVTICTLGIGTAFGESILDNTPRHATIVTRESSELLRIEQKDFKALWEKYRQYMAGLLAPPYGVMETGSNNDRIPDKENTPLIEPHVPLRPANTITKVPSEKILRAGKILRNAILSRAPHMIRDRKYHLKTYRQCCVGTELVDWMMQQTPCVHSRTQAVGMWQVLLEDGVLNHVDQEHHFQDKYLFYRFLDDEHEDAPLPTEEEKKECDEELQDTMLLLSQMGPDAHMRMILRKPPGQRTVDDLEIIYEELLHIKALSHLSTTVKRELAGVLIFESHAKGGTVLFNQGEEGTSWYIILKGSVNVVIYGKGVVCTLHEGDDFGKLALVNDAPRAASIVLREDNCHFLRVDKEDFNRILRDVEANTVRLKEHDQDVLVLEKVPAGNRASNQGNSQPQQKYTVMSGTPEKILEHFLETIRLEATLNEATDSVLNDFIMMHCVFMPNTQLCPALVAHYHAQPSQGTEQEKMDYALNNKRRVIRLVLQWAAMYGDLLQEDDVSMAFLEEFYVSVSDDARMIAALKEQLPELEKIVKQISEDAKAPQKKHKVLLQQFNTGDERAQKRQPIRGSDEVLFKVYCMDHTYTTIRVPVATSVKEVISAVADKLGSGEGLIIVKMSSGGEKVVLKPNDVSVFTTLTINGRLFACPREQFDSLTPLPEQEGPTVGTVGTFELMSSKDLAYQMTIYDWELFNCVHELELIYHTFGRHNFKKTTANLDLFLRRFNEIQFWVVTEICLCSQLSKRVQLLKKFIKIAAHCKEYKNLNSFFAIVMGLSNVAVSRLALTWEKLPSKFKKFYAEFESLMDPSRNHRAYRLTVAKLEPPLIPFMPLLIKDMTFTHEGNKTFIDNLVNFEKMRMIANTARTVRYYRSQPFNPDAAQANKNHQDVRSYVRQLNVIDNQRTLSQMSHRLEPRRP", "experiment": "qHTS for Antagonist of cAMP-regulated guanine nucleotide exchange factor 2 (EPAC2): primary screen; further: nearly all actives have a fitted effect of over 45% in size", "settings": "EPAC2 GEF exchange of Rap1B-BODIPY-GDP, fluorescence; series mostly up to 114 µM", "values": [
      {"smiles": "Cc1ccc(-n2sc3ccccc3c2=O)cc1", "Potency": "inactive"},
      {"smiles": "Cc1ccc(-c2nc3ccc(C)cn3c2Cc2ccccc2C(F)(F)F)cc1", "Potency": "inconclusive [inhibitor, partial curve, poor fit]"},
      {"smiles": "Cn1c(=O)n(C)c2cc(NC(=O)c3cccc([N+](=O)[O-])c3)c(Br)cc21", "Potency": "inconclusive [inhibitor, single point]"},
      {"smiles": "Cc1cc(C(=O)COc2cccc([N+](=O)[O-])c2)c(C)n1C1CC1", "Potency": "inactive"},
      {"smiles": "Cc1cccc(N(C)c2ncnc3onc(-c4ccc(F)cc4)c23)c1C", "Potency": "inconclusive [inhibitor, partial curve]"},
      {"smiles": "O=C1C(c2ccccc2)=[N+]([O-])c2ccccc21", "Potency": "inconclusive [inhibitor, full curve]"},
      {"smiles": "O=C1C(=Cc2cn(-c3ccccc3)nc2-c2ccc(OCc3ccccc3)cc2)SC(=S)N1CCS(=O)(=O)O", "Potency": "inconclusive [inhibitor, full curve]"},
      {"smiles": "COc1cc(/C=C/C(=O)c2ccc3c(c2)OCCO3)cc(Br)c1OCC(=O)N(C)C", "Potency": "inactive"},
      {"smiles": "CCOC(=O)C1=CCN(S(=O)(=O)c2ccc(C)cc2)C1c1cccc(Cl)c1", "note": "(stereo unspecified)", "Potency": "inconclusive [inhibitor, partial curve]"},
      {"smiles": "O=C1N(Cc2ccc(F)cc2Cl)c2ccccc2C12OCCCO2", "Potency": "inconclusive [inhibitor, single point]"},
      {"smiles": "CC(OC(=O)C1CCN(S(=O)(=O)c2ccc(C(C)(C)C)cc2)CC1)C(=O)N(C)C1CCCCC1", "note": "(stereo unspecified)", "Potency": "inactive"},
      {"smiles": "Cc1ccccc1-c1cc(=O)c2ccccc2o1", "Potency": "inconclusive [inhibitor, full curve]"},
      {"smiles": "CCOC(=O)C1=C(C)Nc2nc(=S)[nH]n2C1c1ccc(Cl)cc1", "note": "(stereo unspecified)", "Potency": "inconclusive [inhibitor, partial curve]"},
      {"smiles": "N#CC(Sc1ccccn1)c1ccc(Cl)cc1Cl", "note": "(stereo unspecified)", "Potency": "active: 25.1 µM"},
      {"smiles": "CCC1=C(c2cc(OC)c(OC)c(OC)c2)C2(CCCC2)C(=O)O1", "Potency": "inconclusive [inhibitor, partial curve]"},
      {"smiles": "O=C(c1[nH]c(C(F)(F)F)nc1-c1ccccc1)N1CCC(C(O)(c2ccccc2)c2ccccc2)CC1", "Potency": "inconclusive [inhibitor, single point]"},
      {"smiles": "COCc1c(C(=O)NC2CCCCC2)sc2cccc(F)c12", "Potency": "inconclusive [inhibitor, partial curve]"},
      {"smiles": "Cc1oc(-c2cccs2)nc1CNC[C@H]1O[C@@H](n2cnc3c(N)ncnc32)[C@H](O)[C@@H]1O", "Potency": "inactive"},
      {"smiles": "O=C(N/N=C/c1ccc(Br)o1)/C(=C/c1ccc([N+](=O)[O-])cc1)NC(=O)c1ccccc1", "Potency": "inconclusive [inhibitor, single point]"},
      {"smiles": "CCOc1ccc(S(=O)(=O)N2CCN(C(=O)c3cc(C4CC4)nn3-c3ccccc3)CC2)cc1", "Potency": "inactive"},
      {"smiles": "CC1=CC(C)(C)N2C(=O)C(=Nc3ccc(O)cc3)c3cccc1c32", "Potency": "inconclusive [inhibitor, partial curve]"},
      {"smiles": "CCOC(=O)C1=C(N)Oc2cc(O)ccc2C1c1ccccc1", "note": "(stereo unspecified)", "Potency": "inconclusive [inhibitor, partial curve]"},
      {"smiles": "C=CCn1c(SCC(=O)O)nnc1-c1cccs1", "Potency": "inactive"},
      {"smiles": "CCC1COC(c2cccn2Cc2ccc(Cl)cc2)=N1", "note": "(stereo unspecified)", "Potency": "inconclusive [inhibitor, partial curve]"},
      {"smiles": "CCCN(CCC)Cc1cc(=O)oc2cc(C)cc(C)c12", "Potency": "inconclusive [inhibitor, full curve]"},
      {"smiles": "Cc1cc(N2CCN(C(C(=O)NC3CCCC3)C(C)(C)C)CC2)c2ccccc2n1", "note": "(stereo unspecified)", "Potency": "inactive"},
      {"smiles": "Cc1cccn2c(=O)c3cc(C#N)c(=NC(=O)c4ccccc4)n(Cc4ccco4)c3nc12", "Potency": "inconclusive [inhibitor, partial curve]"},
      {"smiles": "Cc1ccc(S(=O)(=O)N2[C@@H](c3ccc(C(C)(C)C)cc3)C(C(=O)O)=CC[C@H]2c2ccc3c(c2)OCO3)cc1", "Potency": "inconclusive [inhibitor, partial curve]"},
      {"smiles": "CCCCN(Cc1ccco1)S(=O)(=O)c1c[nH]c(C(=O)OC)c1", "Potency": "inconclusive [inhibitor, partial curve]"},
      {"smiles": "Nc1nc(-c2ccc(Br)cc2)c(S(=O)(=O)c2ccccc2)s1", "Potency": "inconclusive [inhibitor, partial curve, poor fit]"},
      {"smiles": "COc1ccc(N2CCOCC2)c(NC(=O)c2cc3ccccc3o2)c1", "Potency": "inconclusive [inhibitor, partial curve]"},
      {"smiles": "O=S(=O)(Nc1ccccc1N1CCOCC1)c1ccccc1C(F)(F)F", "Potency": "inconclusive [inhibitor, partial curve]"},
      {"smiles": "COC(=O)CSc1nc2ccccc2c(=O)n1Cc1ccccc1", "Potency": "inconclusive [inhibitor, partial curve]"},
      {"smiles": "CC(=O)NC(c1cccs1)c1cc(F)c2cccnc2c1O", "note": "(stereo unspecified)", "Potency": "inconclusive [inhibitor, full curve, poor fit]"},
      {"smiles": "COc1ccccc1-c1oc2ccccc2c1C#CC(C)(C)O", "Potency": "inconclusive [inhibitor, partial curve]"},
      {"smiles": "COc1cc(SC)ccc1C(=O)Nc1c(C)cccc1C", "Potency": "inconclusive [inhibitor, partial curve]"},
      {"smiles": "COc1nc(C)cc(C)c1S(=O)(=O)c1ccccc1", "Potency": "inconclusive [inhibitor, partial curve, poor fit]"},
      {"smiles": "Cc1oc(-c2ccc(Cl)cc2)nc1CS(=O)CC(=O)NC1CC1", "note": "(stereo unspecified)", "Potency": "inactive"},
      {"smiles": "CN(C)C(=O)c1cccc(-c2cnc3c(NC=O)cc(-c4ccccc4Cl)cn23)c1", "Potency": "inconclusive [inhibitor, partial curve]"},
      {"smiles": "CCc1nc2ccc(C(=O)Nc3ccc(OC)c(OC)c3)cn2c1N(C)CCC(C)C", "Potency": "inconclusive [inhibitor, full curve]"},
      {"smiles": "O=C(Cc1ccc(Cl)cc1)N1CCN(c2ccc(F)cc2)CC1", "Potency": "inactive"},
      {"smiles": "COC(=O)c1ccc(OC(=O)c2ccc(OC)cc2)c(OC)c1", "Potency": "inconclusive [inhibitor, full curve]"},
      {"smiles": "CN(C)C(=O)CSc1nc(-c2ccccc2)c(-c2ccccc2)o1", "Potency": "inconclusive [inhibitor, partial curve]"},
      {"smiles": "Cc1cccc(C)c1-c1ccc(CN2C(CC(C)C)C(=O)N(Cc3cn(CCO)nn3)CCS2(=O)=O)cc1", "note": "(stereo unspecified)", "Potency": "inconclusive [inhibitor, partial curve]"},
      {"smiles": "CC(C)Cn1nc(NS(=O)(=O)c2cccc3nonc23)c2cc3ccccc3nc21", "Potency": "inconclusive [inhibitor, partial curve]"},
      {"smiles": "CCOC(=O)c1c(NC(=O)CC2Sc3ccc(C(F)(F)F)cc3NC2=O)sc(C)c1C", "note": "(stereo unspecified)", "Potency": "inactive"},
      {"smiles": "COc1ccc(NC(=O)CN2CCN(CC(=O)Nc3ccc4c(c3)OCO4)CC2)cc1", "Potency": "inactive"},
      {"smiles": "CC(C)(C)C(=O)N1CCC2CC1c1cc(-c3ccc4c(c3)OCO4)ccc12", "note": "(stereo unspecified)", "Potency": "inconclusive [inhibitor, single point]"},
      {"smiles": "Cc1ccc(NC(=S)N(Cc2cccc(Br)c2)CC2CCC(C(=O)O)CC2)cc1Cl", "note": "(stereo unspecified)", "Potency": "inconclusive [inhibitor, single point]"},
      {"smiles": "Cc1cccc(C)c1NC1=NC(=S)N(c2ccc(N(C)C)cc2)C1(C)C", "Potency": "inactive"},
      {"smiles": "Cc1ccc(NC(=O)CCN2CCC(C)CC2)cc1", "Potency": "inconclusive [inhibitor, partial curve]"},
      {"smiles": "O=C(O)CCC(=O)N1CCN(S(=O)(=O)c2cccs2)CC1", "Potency": "inactive"},
      {"smiles": "N#Cc1ccc(Oc2ccc(S(=O)(=O)N3CCCCC3)cn2)cc1", "Potency": "inactive"},
      {"smiles": "CCC(c1nc2ccccc2[nH]1)n1c(=O)c(-c2cccs2)nc2ccccc21", "note": "(stereo unspecified)", "Potency": "inconclusive [inhibitor, full curve]"},
      {"smiles": "Cc1ccc(-c2nc3ccc(Br)cn3c2Cc2ccsc2)cc1", "Potency": "inconclusive [inhibitor, single point]"},
      {"smiles": "CCSc1nnc(NC(=O)Cc2cc(OC)c(OC)c(OC)c2)s1", "Potency": "inconclusive [inhibitor, single point]"},
      {"smiles": "Cc1ccc(OCC(=O)N(C)CC(=O)Nc2ccc(Cl)c(C(F)(F)F)c2)c([N+](=O)[O-])n1", "Potency": "inconclusive [inhibitor, full curve, poor fit]"},
      {"smiles": "Cc1onc(-c2ccccc2)c1C(=O)N(Cc1ccco1)Cc1cccs1", "Potency": "inconclusive [inhibitor, partial curve]"},
      {"smiles": "Cc1ccc(S(=O)(=O)N2[C@@H](c3ccc(Br)cc3)C(C(=O)O)=CC[C@H]2c2ccc3c(c2)OCO3)cc1", "Potency": "inconclusive [inhibitor, partial curve]"},
      {"smiles": "O=C(C1CCCCC1)N1CCC(c2nc3ccccc3[nH]2)CC1", "Potency": "inactive"},
      {"smiles": "COc1ccc(C(=O)c2cn[nH]c2-c2ccc(C)cc2O)cc1", "Potency": "inconclusive [inhibitor, partial curve]"},
      {"smiles": "Cc1oc(C)c(C(N)=O)c1C(N)=O", "Potency": "inactive"},
      {"smiles": "CCCCc1c(-c2ccccc2OC)ncn1CCc1ccccc1", "Potency": "inconclusive [inhibitor, partial curve]"},
      {"smiles": "COc1ccc(C2CC(c3ccccc3OC(C)=O)=NN2C(C)=O)cc1", "note": "(stereo unspecified)", "Potency": "inconclusive [inhibitor, partial curve]"},
      {"smiles": "COc1ccccc1N1CCN(C(=S)NC(=O)c2ccc([N+](=O)[O-])cc2)CC1", "Potency": "inconclusive [inhibitor, single point]"},
      {"smiles": "CN(Cc1ccccc1)C(=O)COc1ccc(Br)cc1Cl", "Potency": "inconclusive [inhibitor, partial curve, poor fit]"}
    ]}
  ]
}
